# Data reported in the supplement of paper PMC4466236.
# The full ranking holds about 33,000 sequences; the median of “E-score (dimensionless, -0.5 to 0.5)” is about -0.058, and the highest 2% start at about 0.35. Some of the results follow.
# Test system: MvaT
# Experiment: PBM 8-mer E-score (mean of HK and ME arrays) (E-score (dimensionless, -0.5 to 0.5)); higher = stronger relative binding preference; most listed sequences are background and not binding sites
# How it was run: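 Reported values are rank-based E-scores, taken as the mean of two universal arrays and parsed with a custom script. Each 8-mer score falls between -0.5 and 0.5. The arrays, ME and HK, were double-stranded 60-mers with a constant 25-mer primer region and a variable 35-mer region covering all 8-mers. They were probed, by an earlier protocol, with full-length P. aeruginosa MvaT carrying an N-terminal glutathione S-transferase fusion.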
row,Sequence,PBM 8-mer E-score
1,ATGGCTGA,-0.163
2,CGCCGGAC,-0.155
3,AGACCCGA,-0.133
4,CCGCGTCA,-0.18
5,AGCCTAGC,-0.306
6,AACCCTCT,-0.36
7,ACCTCTTG,-0.155
8,TAGCACGA,0.00258
9,TGCTACCA,-0.206
10,CTACACTC,-0.0376
11,AACCCGAA,-0.0227
12,CAACGACC,-0.155
13,GTGGGAAA,-0.0907
14,AGGACCCC,-0.22
15,CGGGCCCA,-0.328
16,CCGATTCA,-0.128
17,ATTAGACC,0.0805
18,CCGCAAAA,-0.0181
19,CCGGGTAC,-0.17
20,CTCACCCA,-0.079
21,GCCACGGA,-0.226
22,AACAACTT,0.358
23,CTCCCATC,-0.218
24,CAGAGACA,-0.164

row,Sequence,PBM 8-mer E-score
1,ACACCTCT,-0.0675
2,GACTATCC,-0.0423
3,ATTAGTAG,0.273
4,GCTGCAAA,0.094
5,TTATGAAA,0.303
6,AGCTCGTC,-0.146
7,ACAACTTC,0.201
8,CGGCCTCA,-0.214
9,GAATTAGA,0.106
10,ACACTTTG,0.0598
11,GAGACCAC,-0.107
12,CGATCGGA,-0.143
13,AGTTTGTA,0.299
14,CCGACTCA,0.00996
15,CAAGAGTA,0.023
16,ATTTGAAG,0.229
17,GACCTACC,-0.136
18,ATATCGAC,0.202
19,CGTATTCA,0.121
20,CGATTACG,-0.0865
21,ATACCAGC,0.076
22,AGGTTGAT,-0.0683
23,AGCAGATG,-0.0501
24,CCATTTCA,0.0114

row,Sequence,PBM 8-mer E-score
1,CGCGACTC,-0.0414
2,TATAGAGA,0.155
3,CGTGACAC,-0.251
4,AAAGCGGG,0.0158
5,AATCGAAA,0.226
6,GCAACGAC,-0.141
7,CTCATGTA,0.156
8,GCTAACTA,0.16
9,AGTACGAG,0.0471
10,AACGGCGT,-0.0798
11,CGACTTAG,-0.0985
12,ACCAAACG,-0.121
13,ACTCCAGT,-0.0776
14,GAGTTTAC,0.141
15,CTACTGTC,0.0058
16,ACTAACAT,0.322
17,GCCCCTTA,-0.239
18,GCCCTAAA,0.0588
19,ACTCTTCG,-0.157
20,AATTATCG,0.336
21,TGCGCACA,-0.029
22,TACTAGTA,0.269
23,ATATTACC,0.293
24,GAGGTCCC,-0.236

row,Sequence,PBM 8-mer E-score
1,CAGCCGCC,-0.157
2,ACTAGAGC,-0.14
3,ACATAGGA,0.178
4,GCTCTCGA,-0.0844
5,GAGTTCGA,-0.115
6,AATCGGGG,-0.0645
7,AATATAGC,0.343
8,AGAAGAAA,-0.0887
9,GCTAGCAA,-0.0545
10,CGCGGGGC,-0.171
11,ACGCGTGG,0.0418
12,CCAGACGC,-0.141
13,CAACTAAC,0.196
14,CCTATGGA,-0.202
15,GCGGAGGA,-0.291
16,AAACGGAA,0.163
17,CCTGGTGC,-0.135
18,CCAGATAA,0.165
19,GGCATTTA,0.0577
20,AACCTAAC,0.179
21,AAGGTGGG,-0.155
22,TGCCCAAA,0.0537
